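A five-concentration, 48-hour dose response in 96-well plates underlies each endpoint, interpolated linearly between surrounding concentrations. Here, GI50 denotes the concentration required for 50% inhibition of growth. TGI marks complete inhibition of growth.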
Tested on: NCI-H322M lung
Assay: NCI anticancer screen, dose series, 48 h

SMILES: O=C(N/N=C/c1ccc(Cl)cc1Cl)c1ccccc1Nc1cccc(C(F)(F)F)c1
- GI50: 6.95 µM
- TGI: > 100 µM

SMILES: CNc1ccc2c(c1)Cc1ccccc1-2
- TGI: > 100 µM

SMILES: Cc1ccc(C(=O)CC(Sc2cccc(Cl)c2Cl)c2ccc(Cl)cc2)cc1C (centres undefined)
- GI50: 17.9 µM
- TGI: 43.3 µM

SMILES: CC(C)(C)c1ccc2c(c1)OCc1n[nH]c(n1)COc1cc(C(C)(C)C)ccc1OCCOCCO2
- TGI: 30.4 µM

SMILES: COc1ccc2c(c1)[C@@]13CCN4CC5=CCO[C@H]6CC(=O)N2[C@H]1[C@H]6[C@H]5C[C@H]43
- TGI: > 100 µM

SMILES: O=CN(O)CC(=O)O
- TGI: > 100 µM

SMILES: CCOC(=O)c1ccc(C(=O)/C(C(=O)OC(C)(C)C)=C2\CCCN2C)n1C
- TGI: > 100 µM

SMILES: CC(C)Cc1c(C#N)c(C#N)c(N)n1Cc1ccccc1
- TGI: > 100 µM

SMILES: CCCC[C@@H]1CCN2C[C@@H](O)[C@@H](O)[C@H]2[C@@H]1O
- TGI: > 100 µM

SMILES: CCN(CCO)CCNc1ccc(C)c2sc3cc(Cl)ccc3c(=O)c12
- GI50: 1.5 µM
- TGI: 3.14 µM

SMILES: c1cc[c]([Sn]([S]c2cccc3cccnc23)([c]2ccccc2)[c]2ccccc2)cc1
- GI50: 0.0487 µM
- TGI: 0.173 µM

SMILES: c1ccc([P+](Cc2csnn2)(c2ccccc2)c2ccccc2)cc1
- TGI: > 100 µM

SMILES: O=C1N[C@@H](O)[C@@H]2ON=C(c3ccccc3)[C@H]12
- TGI: > 100 µM

SMILES: COC(=O)c1c(O)ccc2[nH]c(C)c(C#N)c12
- GI50: 35.7 µM
- TGI: 97.7 µM

SMILES: Cc1ncc(NC(=O)c2ccc(CN3CCN(C)CC3)c(C(F)(F)F)c2)cc1Nc1nccc(-c2cccnc2)n1
- GI50: 17.3 µM
- TGI: 31.1 µM

SMILES: Cc1ccc([N+](=O)[O-])c2c(NCCCN(C)C)ccnc12
- TGI: > 100 µM

SMILES: NC1=NC(=O)C(CC(=O)Nc2ccc([N+](=O)[O-])cc2[N+](=O)[O-])S1 (centres undefined)
- TGI: > 100 µM

SMILES: CCN(CC(=O)O)CC(=O)O
- TGI: > 100 µM

SMILES: Nc1n[nH]c2ccccc12
- TGI: > 100 µM

SMILES: Nc1nc(Nc2ccc(OCc3cccc(F)c3)cc2)c2c(n1)[nH]c1ccc(O)cc12
- GI50: 3.62 µM
- TGI: 15.5 µM

SMILES: CCN(CC)CCCNc1ccc([N+](=O)[O-])c2nc3ccc(OC)cc3c(NCCCN(CC)CC)c12
- TGI: 3.08 µM

SMILES: O=c1cc(-c2ccccc2F)[nH]c2cc3c(cc12)OCO3
- TGI: > 100 µM

SMILES: O=C1CCn2c([nH]c3cccc4cccc2c43)=N1
- TGI: > 100 µM

SMILES: Cc1c(-c2nc(N)nc(C3CC3)c2C)nc(N)nc1C1CC1
- TGI: > 100 µM

SMILES: C=C(C)[C@@H]1CC[C@@]2(C(=O)O)CC[C@]3(C)C(CCC4[C@@]5(C)CCC(OS(=O)(=O)c6ccccc6)C(C)(C)C5CC[C@]43C)C12 (some centres undefined)
- GI50: 4.91 µM
- TGI: 24.2 µM

SMILES: CC1=C(C(=O)NNC(=O)CC#N)CC(C(=O)NNC(=O)CC#N)=C(C)N1
- TGI: > 100 µM
